{
  "source": "PubChem BioAssay AID485294",
  "about": "(National Center for Advancing Translational Sciences (NCATS), 2010)",
  "note": "Out of some 370,000 compounds screened, about 150 (0.041%) were called active. Inconclusive means that the source gave no clear call. Such entries were picked first, then a sample of the others. The call rests on the fitted dose curve; in most records, active means well fitted inhibition curve with a large enough effect; inconclusive means small, poorly fitted or top-dose-only effect; inactive means flat fitted curve, though single readings scatter. No potency is given beside an inconclusive call; the fits are too rough. Potency means the concentration at half of the fitted maximal effect; tags describe the fitted curve by direction and shape.",
  "data": [
    {"target": "Beta-lactamase (Escherichia coli (strain K12)) (UniProt P00811)", "sequence (P00811 whole entry, looked up)": "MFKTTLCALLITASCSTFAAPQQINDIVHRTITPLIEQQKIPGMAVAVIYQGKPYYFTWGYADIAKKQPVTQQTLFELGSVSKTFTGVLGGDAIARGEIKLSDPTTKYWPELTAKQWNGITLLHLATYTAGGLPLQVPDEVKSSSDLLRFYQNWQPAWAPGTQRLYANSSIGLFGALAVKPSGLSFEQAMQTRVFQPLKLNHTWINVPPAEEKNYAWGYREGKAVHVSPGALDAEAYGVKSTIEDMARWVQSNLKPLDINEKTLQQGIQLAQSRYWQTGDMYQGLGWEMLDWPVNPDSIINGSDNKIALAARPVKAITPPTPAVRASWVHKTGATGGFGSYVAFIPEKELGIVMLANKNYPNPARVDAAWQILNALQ", "assay": "qHTS Inhibitors of AmpC Beta-Lactamase (assay with detergent); further: nearly all actives have a fitted effect of over 25% in size;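 on activity change, negative = inhibition: 0% = no-compound wells and -100% = no-enzyme wells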", "conditions": "AmpC hydrolysis of nitrocefin, absorbance 480 nm, 0.01% Triton; activity change, negative = inhibition: at 114 µM (top of the series)", "summary_of_the_method": "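20 mM phosphate pH 7.0 + 0.01% (detergent screen) or 0.0001% Triton X-100; 5.3 nM AmpC reagent; cpd preinc 15 min RT; nitrocefin (800 uM stock) to start; A480 q20 s × 4 min; Activity was normalised to no-enzyme and no-compound control wells.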", "values": [
      {"smiles": "CC(C)CC(=O)NC(=S)Nc1ccc(S(=O)(=O)N2CCN(C)CC2)cc1", "Potency": "inconclusive [inhibitor, partial curve, poor fit]"},
      {"smiles": "C=C(C)CNC(=S)N/N=C1\\CCCCc2ccccc21", "activity change, negative = inhibition": "inactive: -10.7%"},
      {"smiles": "CC(=O)Nc1cccc(NC(=O)COc2ccccc2C)c1", "Potency": "inconclusive [inhibitor, full curve, poor fit]"},
      {"smiles": "COc1ccc(Cc2nnc(NC(=O)c3ccccc3Cl)s2)cc1OC", "Potency": "inconclusive [inhibitor, full curve, poor fit]"},
      {"smiles": "CCOC(=O)c1ccc(-n2c(C)nc3c(cnn3-c3ccccc3C)c2=O)cc1", "Potency": "inconclusive [inhibitor, full curve, poor fit]"},
      {"smiles": "CCOc1ccc(C(=O)Nc2ccc(C(=O)OCc3cc(=O)n4ccsc4n3)cc2)cc1", "activity change, negative = inhibition": "inactive: 16.7%"},
      {"smiles": "O=C(Nc1cccc2cccnc12)c1cccc2ccccc12", "Potency": "inconclusive [inhibitor, full curve, poor fit]"},
      {"smiles": "CCN(CC)C(=O)c1ccc(-c2nnc(Nc3cccc(O)c3)c3ccccc23)cc1", "Potency": "inconclusive [inhibitor, partial curve, poor fit]"},
      {"smiles": "CC(C)C(=O)N1CCN(CCN=CC2=C(O)CC(c3ccco3)CC2=O)CC1", "note": "(stereo not given)", "Potency": "inconclusive [inhibitor, full curve]"},
      {"smiles": "NS(=O)(=O)c1ccc(-c2ccc(C=C3C(=O)c4ccccc4C3=O)o2)cc1", "Potency": "inconclusive [inhibitor, partial curve, poor fit]"},
      {"smiles": "C#CCOC(=O)C[N+](C)(C)CC=C", "Potency": "inconclusive [inhibitor, single point]"},
      {"smiles": "O=C(CCC(=O)Nc1cc(C(F)(F)F)ccc1Cl)N/N=C\\c1cc([N+](=O)[O-])ccc1O", "activity change, negative = inhibition": "inactive: -9.58%"},
      {"smiles": "C=CCn1c(=NC(=O)c2ccc(S(=O)(=O)N3CCCc4ccccc43)cc2)sc2cc(S(N)(=O)=O)ccc21", "activity change, negative = inhibition": "inactive: -11.4%"},
      {"smiles": "O=C(O)c1ccccc1-c1ccccc1C(=O)Nc1ccc2c(c1)CCC2", "Potency": "inconclusive [inhibitor, full curve, poor fit]"},
      {"smiles": "CS(=O)(=O)N(Cc1ccc(Cl)cc1)c1ccc(C(=O)NCCC2=CCCCC2)cc1", "activity change, negative = inhibition": "inactive: -11.5%"},
      {"smiles": "O=C(O)COc1ccccc1/C=N/NC(=O)c1cc2ccccc2cc1O", "activity change, negative = inhibition": "inactive: -1.8%"},
      {"smiles": "COc1ccccc1C(C(=O)NC1CCCCC1)N(C(=O)c1csnn1)C1CC1", "note": "(stereo not given)", "Potency": "inconclusive [inhibitor, single point]"},
      {"smiles": "CCCOC(=O)c1ccc(NC(=O)c2cnccn2)cc1", "Potency": "inconclusive [inhibitor, full curve, poor fit]"},
      {"smiles": "COc1cc2[nH]c(=S)n(C3CCN(Cc4ccccc4)CC3)c(=O)c2cc1OC", "Potency": "inconclusive [inhibitor, single point]"},
      {"smiles": "COc1ccccc1N(C(=O)CNC(=O)c1ccco1)C(C(=O)NC1CCCCC1)c1ccncc1", "note": "(stereo not given)", "activity change, negative = inhibition": "inactive: -3.12%"},
      {"smiles": "CCCCOC(=O)c1cccc(NC(=O)CCC(=O)O)c1", "Potency": "inconclusive [inhibitor, partial curve, poor fit]"},
      {"smiles": "CCOc1ccc(Nc2ncnc3c2cnn3-c2ccccc2)cc1", "Potency": "inconclusive [inhibitor, full curve, poor fit]"},
      {"smiles": "O=Cc1cc(N=Nc2cccc(C(=O)O)c2)ccc1O", "Potency": "inconclusive [inhibitor, full curve]"},
      {"smiles": "Cc1ccc(-n2nc(CN3CCOCC3)c(-c3ccccc3)c2N)c(C)c1", "Potency": "inconclusive [inhibitor, partial curve, poor fit]"},
      {"smiles": "O=C(Nc1ccc2c(c1)OCCO2)c1cccc2nc3ccccc3nc12", "Potency": "inconclusive [inhibitor, full curve, poor fit]"},
      {"smiles": "Cc1cccc(Cn2cc(S(=O)(=O)c3ccc(Cl)cc3)c(=O)c3cc4c(cc32)OCO4)c1", "activity change, negative = inhibition": "inactive: -10.6%"},
      {"smiles": "C=CCn1c(SCc2csc(C)n2)nc2sc3c(c2c1=O)CCC(C)C3", "note": "(stereo not given)", "activity change, negative = inhibition": "inactive: 0.767%"},
      {"smiles": "COC(=O)C1(C)CN(S(=O)(=O)c2ccc(C)cc2)c2cc(OC)ccc2C1=O", "note": "(stereo not given)", "Potency": "inconclusive [inhibitor, partial curve]"},
      {"smiles": "CNc1oc(-c2ccccc2F)nc1S(=O)(=O)c1ccc(C)cc1", "activity change, negative = inhibition": "inactive: -3.39%"},
      {"smiles": "c1ccc(-n2nnnc2-n2cnc3ccccc32)cc1", "Potency": "inconclusive [inhibitor, partial curve]"},
      {"smiles": "COc1cccc(/C=N/NC(=O)c2ccc(=O)n(C)c2)c1O", "activity change, negative = inhibition": "inactive: -5.03%"},
      {"smiles": "COc1ccc(-c2cc(C(=O)OC3CCOC3=O)c3ccccc3n2)cc1OC", "note": "(stereo not given)", "Potency": "inconclusive [inhibitor, full curve]"},
      {"smiles": "CC(NC(=O)c1ccccc1)c1nc2ccccc2n1Cc1ccc(C#N)cc1", "note": "(stereo not given)", "Potency": "inconclusive [inhibitor, full curve, poor fit]"},
      {"smiles": "COc1cc2c(cc1O)C[C@H]1c3c(cc(O)c(OC)c3-2)CCN1C", "activity change, negative = inhibition": "inactive: -14.7%"},
      {"smiles": "O=C(CNC(=S)N(CCCN1CCOCC1)Cc1cccs1)N1CCCC1", "Potency": "inconclusive [inhibitor, full curve, poor fit]"},
      {"smiles": "COc1cccc(Nc2nc(NCCO)c3ccccc3n2)c1", "activity change, negative = inhibition": "inactive: 1.02%"},
      {"smiles": "CCC(SCC(=O)OC)C(=O)Nc1nnc(C(C)C)s1", "note": "(stereo not given)", "Potency": "inconclusive [inhibitor, partial curve, poor fit]"},
      {"smiles": "Cc1ccc(S(=O)(=O)N2CCOCC2)cc1C(=O)OCC(=O)NC1CCCC(C)C1C", "note": "(stereo not given)", "activity change, negative = inhibition": "inactive: -11.9%"},
      {"smiles": "COc1ccc(C(=O)NC(=S)NC(C)C)cc1Br", "activity change, negative = inhibition": "inactive: 0.867%"},
      {"smiles": "CCCc1nc2ccccc2c(C(=O)OCC(=O)NCc2ccco2)c1CC", "activity change, negative = inhibition": "inactive: -11.5%"},
      {"smiles": "COc1ccc(C(=O)N2N=C(c3ccccc3)CC2(O)C(F)(F)F)cc1", "note": "(stereo not given)", "activity change, negative = inhibition": "inactive: 9.31%"},
      {"smiles": "COc1ccc(-c2noc(N3CCC(C(=O)Nc4ccc(F)cc4F)CC3)n2)cc1", "Potency": "inconclusive [inhibitor, full curve, poor fit]"},
      {"smiles": "Cc1sc2ncnc(N3CCC(C(=O)Nc4cc(Cl)ccc4Cl)CC3)c2c1C", "Potency": "inconclusive [inhibitor, full curve, poor fit]"},
      {"smiles": "CCC(C)NC(=O)Cn1c(=O)n(-c2ccc(Cl)c(Cl)c2)c(=O)c2c(C)c(C(=O)N(CC)CC)sc21", "note": "(stereo not given)", "activity change, negative = inhibition": "inactive: 1.66%"},
      {"smiles": "COCCn1c(=NC(=O)c2ccc(S(=O)(=O)N3CCc4ccccc4C3)cc2)sc2cc(S(N)(=O)=O)ccc21", "Potency": "inconclusive [inhibitor, full curve, poor fit]"},
      {"smiles": "CCN(Cc1ccncc1)C(=S)Nc1ccc(Cl)cc1", "activity change, negative = inhibition": "inactive: -0.113%"},
      {"smiles": "CCOc1cc(CNn2cnnc2)ccc1OCC(=O)NC1CCCCC1", "Potency": "inconclusive [inhibitor, full curve, poor fit]"},
      {"smiles": "Cc1cccc(NC2=NCC(=O)N2Cc2ccccc2)c1", "Potency": "inconclusive [inhibitor, full curve, poor fit]"},
      {"smiles": "Cc1nc2nc[nH]n2c(=O)c1CC(=O)O", "Potency": "inconclusive [inhibitor, single point]"},
      {"smiles": "CCCOc1ccc(C2/C(=C(/O)c3ccc(F)cc3)C(=O)C(=O)N2CCCN(C)C)cc1", "note": "(stereo not given)", "Potency": "inconclusive [inhibitor, full curve]"},
      {"smiles": "CC(C)(C)n1nc(-c2ccc(Cl)cc2)c2c(N)ncnc21", "activity change, negative = inhibition": "inactive: -6.78%"},
      {"smiles": "COc1ccc(-c2nnc(SCC(=O)N3CCOCC3)o2)cc1OC", "Potency": "inconclusive [inhibitor, full curve, poor fit]"},
      {"smiles": "CC1=C(C(=O)OCC2CCCO2)C(c2ccc(O)cc2)NC(=O)N1", "note": "(stereo not given)", "Potency": "inconclusive [inhibitor, full curve, poor fit]"},
      {"smiles": "O=C(Cn1cc([N+](=O)[O-])ccc1=O)NCc1ccc(Cl)cc1Cl", "activity change, negative = inhibition": "inactive: 9.11%"},
      {"smiles": "CCC(C(=O)OCc1csc(CC(=O)Nc2ccccc2C)n1)c1ccccc1", "note": "(stereo not given)", "Potency": "inconclusive [inhibitor, single point]"},
      {"smiles": "Nc1nonc1-c1noc(N2CCCCC2)n1", "activity change, negative = inhibition": "inactive: -11.7%"},
      {"smiles": "O=C(c1ccccc1Cl)N1N=C(c2ccc(Br)cc2)CC1c1nc2ccccc2[nH]1", "note": "(stereo not given)", "activity change, negative = inhibition": "inactive: -13.3%"},
      {"smiles": "Cc1n[nH]c(=S)n1/N=C/c1cccc(OCc2ccccc2)c1", "activity change, negative = inhibition": "inactive: 1.43%"},
      {"smiles": "CN(C(=O)CCS(=O)(=O)c1ccc2c(c1)oc(=O)n2C)C1CCCCC1", "activity change, negative = inhibition": "inactive: -5.78%"},
      {"smiles": "CCOc1ccccc1NC(=O)CSc1nc2c([nH]c3ccccc32)c(=O)n1-c1ccccc1", "activity change, negative = inhibition": "inactive: 7.4%"},
      {"smiles": "O=C(CSc1nnc(Cc2csc(Nc3cccc(Cl)c3)n2)o1)N1CCc2ccccc21", "activity change, negative = inhibition": "inactive: -11.9%"},
      {"smiles": "CCc1nc(SCC(=O)Nc2sc(C)c(C)c2C(=O)OC)c2ccccc2n1", "Potency": "inconclusive [inhibitor, partial curve]"},
      {"smiles": "Cc1ccc(C(=O)NC(=S)Nc2ccc(N3CCOCC3)cc2)cc1C", "Potency": "inconclusive [inhibitor, full curve]"},
      {"smiles": "Cc1ccc(NC(=O)C2(N(CC(C)C)C(=O)Cn3nnnc3N)CCCCC2)cc1", "Potency": "inconclusive [inhibitor, single point]"},
      {"smiles": "CC(=O)N1C(c2ccccc2)CC(=O)OC1c1ccc2c(c1)OCO2", "note": "(stereo not given)", "Potency": "inconclusive [inhibitor, full curve, poor fit]"},
      {"smiles": "O=C(Cc1cccs1)NCCN1CCOCC1", "Potency": "inconclusive [inhibitor, full curve, poor fit]"},
      {"smiles": "C=CCn1c(SCC(=O)NC2CC2)nc2ccccc2c1=O", "activity change, negative = inhibition": "inactive: 3.1%"},
      {"smiles": "CCC(CO)NCc1ccc2c(c1)n(C)c(=O)n2C", "note": "(stereo not given)", "Potency": "inconclusive [inhibitor, full curve]"},
      {"smiles": "CCOC(=O)CC(=O)CSc1nc2ccccc2c(=O)n1-c1ccc(C(=O)NCCOC)cc1", "Potency": "inconclusive [inhibitor, full curve, poor fit]"},
      {"smiles": "O=C(COC(=O)CNC(=O)c1ccccc1)Nc1ccc(F)c([N+](=O)[O-])c1", "Potency": "inconclusive [inhibitor, full curve, poor fit]"}
    ]}
  ]
}
